# Results published in the supplement of paper PMC8728848.
# Some of the results follow.
# B1: CpGal16 (Clavelina picta) (protein)
# chain: MAKMITNYVGKRIECIMVATDMMSTVFSLASATGDLPFYINFRQRENSIVMNTRVHGKWQYEKSQSSGGMNFYEPFRLVVEVRPSVFKVTVSTMGEEDGITFNLQYSQITIKPDEIVAMHLGYCNLRSELLVTDL
# What was measured:
# Assay in all cases: glycan array binding signal (z-score within array); higher = stronger binding
# Conditions in all cases: glycan notation: IUPAC condensed, linker removed
# [1] = biological target: Gal(b1-4)GlcNAc(b1-2)[Gal(b1-4)GlcNAc(b1-6)]Man(a1-6)[Gal(b1-4)GlcNAc(b1-2)Man(a1-3)]Man(b1-4)GlcNAc(b1-4)[Fuc(a1-6)]GlcNAc
# Procedure, shortened: (§1)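 The binding signal is a Z-score computed within each array. Data were drawn from 3228 arrays in the Consortium for Functional Glycomics database, restricted to those with a known protein sequence. Scores were averaged over arrays of the same protein sequence at different concentrations or buffers, and over linkers, and negative values can be taken as non-binding.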
# [2] = biological target: Gal(b1-4)GlcNAc(b1-2)[Gal(b1-4)GlcNAc(b1-6)]Man(a1-6)[GlcNAc(b1-4)][Gal(b1-4)GlcNAc(b1-2)Man(a1-3)]Man(b1-4)GlcNAc(b1-4)GlcNAc
# Procedure, shortened: as §1
# [3] = biological target: Gal(b1-4)GlcNAc(b1-2)[Gal(b1-4)GlcNAc(b1-6)]Man(a1-6)[GlcNAc(b1-4)][Gal(b1-4)GlcNAc(b1-2)[Gal(b1-4)GlcNAc(b1-4)]Man(a1-3)]Man(b1-4)GlcNAc(b1-4)[Fuc(a1-6)]GlcNAc
# Procedure, shortened: as §1
# [4] = biological target: Gal(b1-4)GlcNAc(b1-3)Gal(b1-3)GalNAc
# Procedure, shortened: as §1
# [5] = biological target: Gal(b1-4)GlcNAc(b1-3)Gal(b1-3)GlcNAc
# Procedure, shortened: as §1
# [6] = biological target: Gal(b1-4)GlcNAc(b1-3)Gal(b1-4)Glc
# Procedure, shortened: as §1
# [7] = biological target: Gal(b1-4)GlcNAc(b1-3)Gal(b1-4)GlcNAc
# Procedure, shortened: as §1
# [8] = biological target: Gal(b1-4)GlcNAc(b1-3)Gal(b1-4)GlcNAc(b1-2)Man(a1-3)[Gal(b1-4)GlcNAc(b1-3)Gal(b1-4)GlcNAc(b1-2)Man(a1-6)]Man(b1-4)GlcNAc(b1-4)GlcNAc
# Procedure, shortened: as §1
# [9] = biological target: Gal(b1-4)GlcNAc(b1-3)Gal(b1-4)GlcNAc(b1-2)Man(a1-3)[Gal(b1-4)GlcNAc(b1-3)Gal(b1-4)GlcNAc(b1-2)Man(a1-6)]Man(b1-4)GlcNAc(b1-4)[Fuc(a1-6)]GlcNAc
# Procedure, shortened: as §1
# [10] = biological target: Gal(b1-4)GlcNAc(b1-3)Gal(b1-4)GlcNAc(b1-2)[Gal(b1-4)GlcNAc(b1-3)Gal(b1-4)GlcNAc(b1-6)]Man(a1-6)[Gal(b1-4)GlcNAc(b1-3)Gal(b1-4)GlcNAc(b1-2)Man(a1-3)]Man(b1-4)GlcNAc(b1-4)GlcNAc
# Procedure, shortened: as §1
# [11] = biological target: Gal(b1-4)GlcNAc(b1-3)Gal(b1-4)GlcNAc(b1-2)[Gal(b1-4)GlcNAc(b1-3)Gal(b1-4)GlcNAc(b1-6)]Man(a1-6)[Gal(b1-4)GlcNAc(b1-3)Gal(b1-4)GlcNAc(b1-2)Man(a1-3)]Man(b1-4)GlcNAc(b1-4)[Fuc(a1-6)]GlcNAc
# Procedure, shortened: as §1
# [12] = biological target: Gal(b1-4)GlcNAc(b1-3)Gal(b1-4)GlcNAc(b1-3)Gal(b1-4)GlcNAc
# Procedure, shortened: as §1
# [13] = biological target: Gal(b1-4)GlcNAc(b1-3)Gal(b1-4)GlcNAc(b1-3)Gal(b1-4)GlcNAc(b1-2)Man(a1-3)[Gal(b1-4)GlcNAc(b1-3)Gal(b1-4)GlcNAc(b1-3)Gal(b1-4)GlcNAc(b1-2)Man(a1-6)]Man(b1-4)GlcNAc(b1-4)GlcNAc
# Procedure, shortened: as §1
# [14] = biological target: Gal(b1-4)GlcNAc(b1-3)Gal(b1-4)GlcNAc(b1-3)Gal(b1-4)GlcNAc(b1-2)Man(a1-3)[Gal(b1-4)GlcNAc(b1-3)Gal(b1-4)GlcNAc(b1-3)Gal(b1-4)GlcNAc(b1-2)Man(a1-6)]Man(b1-4)GlcNAc(b1-4)[Fuc(a1-6)]GlcNAc
# Procedure, shortened: as §1
# [15] = biological target: Gal(b1-4)GlcNAc(b1-3)Gal(b1-4)GlcNAc(b1-3)Gal(b1-4)GlcNAc(b1-2)[Gal(b1-4)GlcNAc(b1-3)Gal(b1-4)GlcNAc(b1-3)Gal(b1-4)GlcNAc(b1-6)]Man(a1-6)[Gal(b1-4)GlcNAc(b1-3)Gal(b1-4)GlcNAc(b1-3)Gal(b1-4)GlcNAc(b1-2)Man(a1-3)]Man(b1-4)GlcNAc(b1-4)[Fuc(a1-6)]GlcNAc
# Procedure, shortened: as §1
# [16] = biological target: Gal(b1-4)GlcNAc(b1-3)Gal(b1-4)GlcNAc(b1-3)Gal(b1-4)GlcNAc(b1-3)Gal(b1-4)GlcNAc(b1-2)Man(a1-3)[Gal(b1-4)GlcNAc(b1-3)Gal(b1-4)GlcNAc(b1-3)Gal(b1-4)GlcNAc(b1-3)Gal(b1-4)GlcNAc(b1-2)Man(a1-6)]Man(b1-4)GlcNAc(b1-4)GlcNAc
# Procedure, shortened: as §1
# [17] = biological target: Gal(b1-4)GlcNAc(b1-3)Gal(b1-4)GlcNAc(b1-3)Gal(b1-4)GlcNAc(b1-3)Gal(b1-4)GlcNAc(b1-2)Man(a1-3)[Gal(b1-4)GlcNAc(b1-3)Gal(b1-4)GlcNAc(b1-3)Gal(b1-4)GlcNAc(b1-3)Gal(b1-4)GlcNAc(b1-2)Man(a1-6)]Man(b1-4)GlcNAc(b1-4)[Fuc(a1-6)]GlcNAc
# Procedure, shortened: as §1
# [18] = biological target: Gal(b1-4)GlcNAc(b1-3)Gal(b1-4)GlcNAc(b1-3)Gal(b1-4)GlcNAc(b1-3)Gal(b1-4)GlcNAc(b1-2)[Gal(b1-4)GlcNAc(b1-3)Gal(b1-4)GlcNAc(b1-3)Gal(b1-4)GlcNAc(b1-3)Gal(b1-4)GlcNAc(b1-6)]Man(a1-6)[Gal(b1-4)GlcNAc(b1-3)Gal(b1-4)GlcNAc(b1-3)Gal(b1-4)GlcNAc(b1-3)Gal(b1-4)GlcNAc(b1-2)Man(a1-3)]Man(b1-4)GlcNAc(b1-4)[Fuc(a1-6)]GlcNAc
# Procedure, shortened: as §1
# [19] = biological target: Gal(b1-4)GlcNAc(b1-3)Gal(b1-4)GlcNAc(b1-3)Gal(b1-4)GlcNAc(b1-3)Gal(b1-4)GlcNAc(b1-3)Gal(b1-4)GlcNAc(b1-2)Man(a1-3)[Gal(b1-4)GlcNAc(b1-3)Gal(b1-4)GlcNAc(b1-3)Gal(b1-4)GlcNAc(b1-3)Gal(b1-4)GlcNAc(b1-3)Gal(b1-4)GlcNAc(b1-2)Man(a1-6)]Man(b1-4)GlcNAc(b1-4)GlcNAc
# Procedure, shortened: as §1
# [20] = biological target: Gal(b1-4)GlcNAc(b1-3)Gal(b1-4)GlcNAc(b1-3)Gal(b1-4)GlcNAc(b1-3)Gal(b1-4)GlcNAc(b1-3)Gal(b1-4)GlcNAc(b1-2)Man(a1-3)[Gal(b1-4)GlcNAc(b1-3)Gal(b1-4)GlcNAc(b1-3)Gal(b1-4)GlcNAc(b1-3)Gal(b1-4)GlcNAc(b1-3)Gal(b1-4)GlcNAc(b1-2)Man(a1-6)]Man(b1-4)GlcNAc(b1-4)[Fuc(a1-6)]GlcNAc
# Procedure, shortened: as §1
# [21] = biological target: Gal(b1-4)GlcNAc(b1-3)Gal(b1-4)GlcNAc(b1-3)Gal(b1-4)GlcNAc(b1-3)Gal(b1-4)GlcNAc(b1-3)Gal(b1-4)GlcNAc(b1-2)[Gal(b1-4)GlcNAc(b1-3)Gal(b1-4)GlcNAc(b1-3)Gal(b1-4)GlcNAc(b1-3)Gal(b1-4)GlcNAc(b1-3)Gal(b1-4)GlcNAc(b1-6)]Man(a1-6)[Gal(b1-4)GlcNAc(b1-3)Gal(b1-4)GlcNAc(b1-3)Gal(b1-4)GlcNAc(b1-3)Gal(b1-4)GlcNAc(b1-3)Gal(b1-4)GlcNAc(b1-2)Man(a1-3)]Man(b1-4)GlcNAc(b1-4)[Fuc(a1-6)]GlcNAc
# Procedure, shortened: as §1
# [22] = biological target: Gal(b1-4)GlcNAc(b1-3)Gal(b1-4)GlcNAc(b1-3)Gal(b1-4)GlcNAc(b1-3)Gal(b1-4)GlcNAc(b1-3)Gal(b1-4)GlcNAc(b1-3)Gal(b1-4)GlcNAc(b1-2)Man(a1-3)[Gal(b1-4)GlcNAc(b1-3)Gal(b1-4)GlcNAc(b1-3)Gal(b1-4)GlcNAc(b1-3)Gal(b1-4)GlcNAc(b1-3)Gal(b1-4)GlcNAc(b1-3)Gal(b1-4)GlcNAc(b1-2)Man(a1-6)]Man(b1-4)GlcNAc(b1-4)GlcNAc
# Procedure, shortened: as §1
# [23] = biological target: Gal(b1-4)GlcNAc(b1-3)Gal(b1-4)GlcNAc(b1-3)GalNAc
# Procedure, shortened: as §1
binder,measurement,setting,value
B1,glycan array binding signal (z-score),[1],0.631
same,glycan array binding signal (z-score),[2],-0.171
same,glycan array binding signal (z-score),[3],-0.097
same,glycan array binding signal (z-score),[4],-0.38
same,glycan array binding signal (z-score),[5],-0.341
same,glycan array binding signal (z-score),[6],0.003
same,glycan array binding signal (z-score),[7],-0.294
same,glycan array binding signal (z-score),[8],1.1
same,glycan array binding signal (z-score),[9],0.571
same,glycan array binding signal (z-score),[10],0.683
same,glycan array binding signal (z-score),[11],0.521
same,glycan array binding signal (z-score),[12],-0.379
same,glycan array binding signal (z-score),[13],0.774
same,glycan array binding signal (z-score),[14],0.953
same,glycan array binding signal (z-score),[15],1.44
same,glycan array binding signal (z-score),[16],1.25
same,glycan array binding signal (z-score),[17],1.05
same,glycan array binding signal (z-score),[18],1.12
same,glycan array binding signal (z-score),[19],1.09
same,glycan array binding signal (z-score),[20],1.28
same,glycan array binding signal (z-score),[21],1.41
same,glycan array binding signal (z-score),[22],0.463
same,glycan array binding signal (z-score),[23],-0.168
